PubChem BioAssay AID1645882 (National Center for Advancing Translational Sciences (NCATS), 2021)
Screen size: about 16,000 compounds; about 120 (0.75%) were called active. Inconclusive results (about 4%) are left out. The call rests on the fitted dose curve; in most records, active means well fitted inhibition curve with a large enough effect; inconclusive means small, poorly fitted or top-dose-only effect; inactive means no such curve, though single readings can be large or run the other way. This is one part of the list.

The compounds below were run against Rap guanine nucleotide exchange factor 3 (Homo sapiens) (UniProt O95398) (assay: Validation qHTS for antagonist of cAMP-regulated guanine nucleotide exchange factor 3 (EPAC1)). Conditions: EPAC1 Rap1B-BODIPY-GDP exchange, fluorescence; series mostly up to 150 µM; activity change, negative = inhibition: at the top concentration.
UniProt O95398, sequence (O95398 whole entry, looked up): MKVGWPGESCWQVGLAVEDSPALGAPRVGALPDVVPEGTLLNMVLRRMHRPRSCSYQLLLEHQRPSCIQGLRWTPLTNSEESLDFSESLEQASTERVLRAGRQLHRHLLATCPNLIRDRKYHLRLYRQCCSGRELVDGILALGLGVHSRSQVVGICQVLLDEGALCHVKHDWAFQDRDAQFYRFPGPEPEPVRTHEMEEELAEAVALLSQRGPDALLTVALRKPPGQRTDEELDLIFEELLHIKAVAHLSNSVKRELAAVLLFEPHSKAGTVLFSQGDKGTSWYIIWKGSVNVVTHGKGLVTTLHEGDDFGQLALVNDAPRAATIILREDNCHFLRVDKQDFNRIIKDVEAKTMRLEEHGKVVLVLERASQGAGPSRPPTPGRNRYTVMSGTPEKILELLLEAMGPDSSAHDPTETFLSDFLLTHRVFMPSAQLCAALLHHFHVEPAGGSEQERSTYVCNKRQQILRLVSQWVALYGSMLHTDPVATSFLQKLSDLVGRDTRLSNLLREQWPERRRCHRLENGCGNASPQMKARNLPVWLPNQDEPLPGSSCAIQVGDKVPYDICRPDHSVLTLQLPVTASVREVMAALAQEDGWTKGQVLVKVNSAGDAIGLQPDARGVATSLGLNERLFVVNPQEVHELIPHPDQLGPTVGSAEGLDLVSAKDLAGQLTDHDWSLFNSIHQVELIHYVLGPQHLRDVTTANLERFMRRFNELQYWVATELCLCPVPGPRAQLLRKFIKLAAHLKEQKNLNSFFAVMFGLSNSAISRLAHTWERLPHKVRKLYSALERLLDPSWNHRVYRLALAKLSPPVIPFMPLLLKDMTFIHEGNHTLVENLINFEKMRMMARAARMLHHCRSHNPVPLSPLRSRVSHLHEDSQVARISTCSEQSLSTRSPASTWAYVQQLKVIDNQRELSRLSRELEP
Procedure, shortened: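 Nucleotide exchange followed as fluorescence loss when BODIPY-GDP leaves Rap1B (480 nm excitation, 540 nm emission), read at 5 min intervals over 30 min. Reaction: 100 nM EPAC1, 250 nM RAP1B-BODIPY-GDP, 50 uM GDP; ATA and DMSO define normalization.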
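Further: plate controls were DMSO for no effect and ATA control for full effect; nearly all actives have a fitted effect of over 75% in size.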

| Structure (SMILES) | activity change, negative = inhibition |
| --- | --- |
| CCN1C[C@@]2(COC)C3[C@@H](OC)C4[C@@H]1C3([C@@H]1C[C@]3(O)[C@H](OC(=O)c5ccccc5)[C@@H]1[C@]4(OC(C)=O)[C@@H](O)[C@@H]3OC)[C@H](OC)C[C@H]2O | inactive: 1.02% [at 75.8 µM] |
| CN1C2CCC1CC(OC(c1ccc(F)cc1)c1ccc(F)cc1)C2 (centres undefined) | inactive: 31.2% |
| O=C(O)CC[N+](=O)[O-] | inactive |
| O=C1NCN(c2ccccc2)C12CCN(CCCOc1ccc(F)cc1)CC2 | inactive |
| Oc1ccc2c3c1O[C@H]1[C@@H](O)CC[C@@]4(O)[C@@H](C2)N(CC2CCC2)CC[C@]314 | inactive: 6.08% |
| c1ccc([C@H]2CNCc3ccccc32)cc1 | inactive: 15.9% |
| C/C=C/c1ccc2c(c1)OCO2 | inactive |
| OCc1cnc[nH]1 | inactive: -5.91% [at 75.8 µM] |
| C[C@@H]1O[C@@H](O[C@H]2C[C@@H](O)[C@]3(CO)[C@@H]4C(CC[C@]3(O)C2)[C@@]2(O)CC[C@H]([C@@H]3COC(=O)C3)[C@@]2(C)C[C@H]4O)[C@H](O)[C@H](O)[C@H]1O (some centres undefined) | inactive: 7.04% [at 75.8 µM] |
| Clc1ccccc1-c1cncnc1NCCc1cnc[nH]1 | inactive: -0.347% |
| CCCN(C/C=C\I)[C@@H]1CCc2ccc(O)cc2C1 | inactive: 4.22% |
| CC[C@@]1(O)CC(O)c2c(cc3c(c2O)C(=O)c2c(O)ccc(O)c2C3=O)C1C(=O)OC (some centres undefined) | inactive: 25.5% |
| N#CC(O[C@@H]1OC(COC2OC(CO)C(O)C(O)[C@@H]2O)C(O)C(O)C1O)c1ccccc1 (some centres undefined) | inactive: 16.1% |
| CC1(C)C(O)CC(O)[C@]2(C)C1CC(=O)[C@]1(C)C2CC[C@@]2(C)C(c3ccoc3)OC(=O)C3OC321 (some centres undefined) | inactive: -10% |
| COc1ccc2c(c1OC)CN1CCc3cc4c(cc3C1C2)OCO4 (centres undefined) | inactive: 6.74% [at 75.8 µM] |
| CCCC(C)(COC(N)=O)COC(=O)NC1CC1 (centres undefined) | inactive: 10.8% |
| O=C(Oc1ccccc1)N1CCC[C@@]2(CCN(C(c3ccccc3)c3ccccc3)C2)C1 | inactive: 14.8% |
| C[CH2][Hg][S]c1ccccc1C(=O)O | inactive: -17.2% |
| O=C1CC2OCC=C3CN4CC[C@@]56c7ccccc7N1C5C2C3CC46 (some centres undefined) | inactive: 17.4% |
| CCN(CC)C(=O)N[C@H]1C[C@@H]2c3cccc4[nH]cc(c34)C[C@H]2N(C)C1 | inactive: 1.44% |
| COP(=S)(OC)Oc1ccc(S(=O)(=O)N(C)C)cc1 | inactive: 10.4% |
| O=c1ccc2cc(OC3OC(CO)C(O)C(O)C3O)c(O)cc2o1 (centres undefined) | inactive: 4.95% |

| Structure (SMILES) | activity change, negative = inhibition |
| --- | --- |
| CC(=O)N1CC[N+](C)(C)CC1 | inactive |
| COc1ccc2c(c1)[C@@]13CCCC[C@H]1[C@@H](C2)NCC3 | inactive: -2.15% [at 75.8 µM] |
| CC[C@@H](CO)NC(=O)[C@@H]1C=C2c3cccc4c3c(cn4C)C[C@H]2N(C)C1 | inactive |
| COc1ccc(NC(=O)N2CC[C@@]3(CCCN(C(=O)Oc4ccccc4)C3)C2)cc1 | inactive: 14.5% |
| NC(CO)Cc1ccccc1 (centres undefined) | inactive: 8.96% |
| N#Cc1cccc(NC(=O)N2CC[C@@]3(CCCN(C(=O)Oc4ccccc4)C3)C2)c1 | inactive: 12.5% |
| CCN1C[C@]2(C)CC[C@H](OC)[C@]34C5C[C@@H]6CC[C@@](O)(C5C(=O)O6)C(C13)[C@@H](OC(=O)c1ccccc1)C24 | inactive: 16.6% |
| c1ccc(CN2CCNCC2)cc1 | inactive: 22.3% [at 606 µM] |
| CN1C(=O)CN=C(c2ccccc2)c2cc(Cl)ccc21 | inactive: 9.55% |
| CC(=O)[C@@]1(O)CC[C@H]2[C@@H]3CCC4=CC(=O)CC[C@]4(C)C3(F)[C@@H](O)C[C@@]21C (some centres undefined) | inactive: 9.32% |
| Cc1cc([C@@H]2CCCN2C)on1 | inactive: -5.24% [at 75.8 µM] |
| C[C@]12CC[C@H](O)CC1=CC[C@@H]1[C@@H]2CC[C@]2(C)C(=O)CC[C@@H]12 | inactive: 19.4% |
| CC(Cc1ccccc1)NCc1ccccc1Cl (centres undefined) | inactive: 1.94% |
| Clc1ccc2c(c1)C(c1ccccc1)=NCc1nncn1-2 | inactive: 13.5% |
| CC(C)Nc1nc(Cl)nc(NC(C)C)n1 | inactive: 4.24% |
| c1ccc2c(c1)OCC(C1=NCCN1)O2 (centres undefined) | inactive |
| CC1OC(O[C@@H]2C(O)CC(O[C@@H]3C(O)C[C@@H](OC4CC[C@]5(C)[C@H](CC[C@H]6[C@@H]5CC[C@]5(C)C(C7=CC(=O)OC7)C(O)C[C@@]65O)C4)OC3C)OC2C)CC(O)C1O (some centres undefined) | inactive: 18.1% |
| Nc1ccc([N+](=O)[O-])cc1 | inactive: 32.1% [at 320 µM] |
| O=S1OCC2C(CO1)C1(Cl)C(Cl)=C(Cl)C2(Cl)C1(Cl)Cl (centres undefined) | inactive: 17.1% |
| CCCCSP(=O)(SCCCC)SCCCC | inactive: 17% |
| CC(C)C(O)(C(=O)OC[C@@H]1CC[N+]2([O-])CCCC12)C(C)O (some centres undefined) | inactive: 21.9% |
| N#Cc1c(Cl)c(Cl)c(Cl)c(C#N)c1Cl | inactive: -17.2% |

| Structure (SMILES) | activity change, negative = inhibition |
| --- | --- |
| CCCN(CCC)[C@H]1CCc2c(F)ccc(O)c2C1 | inactive: -6.4% [at 75.8 µM] |
| CC1C(=O)OC2C(O)C34C5OC(=O)[C@@]3(OC3OC(=O)[C@H](O)[C@]34C(C(C)(C)C)C5O)[C@]12O (some centres undefined) | inactive: 3.75% |
| CCCC[N+]1(C)C2CC(OC(=O)[C@H](CO)c3ccccc3)CC1C1OC12 (some centres undefined) | inactive: 7.17% [at 75.8 µM] |
| c1ccc(C2CNCc3ccccc32)cc1 (centres undefined) | inactive: -8.5% |
| CC(N)[C@@H](O)c1ccccc1 (some centres undefined) | inactive: 22% |
| Cc1nnc2n1-c1sc(CCC(=O)N3CCOCC3)cc1C(c1ccccc1Cl)=NC2 | inactive |
| Oc1cc(Cl)c(Cl)cc1Cl | inactive: 10.6% |
| CN(C)CCc1c[nH]c2ccccc12 | inactive: 9.27% [at 606 µM] |
| C/C=C(/C)C(=O)O[C@H]1C(C)=C2[C@H]([C@@H]1OC(=O)CCCCCCC)[C@@](C)(OC(C)=O)C[C@H](OC(=O)CCC)[C@@]1(O)[C@H]2OC(=O)[C@@]1(C)O | inactive: 11.5% |
| CC[N+]1(C)CCCC(OC(=O)C(O)(c2ccccc2)c2ccccc2)C1 (centres undefined) | inactive: 12.8% |
| Cc1o[nH]c(=O)c1C[C@H](N)C(=O)O | inactive |
| Clc1ccc(C2=CCC[C@H]3CC[C@@H]2N3)cn1 | inactive: -6.37% |
| Oc1ccc2c3c1O[C@H]1c4[nH]c5ccccc5c4C[C@]4(O)[C@H](C2)N(CC2CC2)CC[C@@]314 | inactive: 7.03% |
| c1ccc2cc(CC3=NCCN3)ccc2c1 | inactive: 4.07% [at 75.8 µM] |
| COP(=S)(OC)Oc1ccc(Sc2ccc(OP(=S)(OC)OC)cc2)cc1 | inactive: 10.3% |
| CCCCCCC(=O)CCCCCC/C=C/C[C@@H](O)[C@H](O)[C@@](N)(CO)C(=O)O | inactive |
| CCC(C)C(=O)OC1C(O)C2C(CN3CC(C)CCC3[C@]2(C)O)C2C[C@]34O[C@@]5(O)C(OC(=O)C(C)(O)C(C)O)CCC3(C)C5C(OC(C)=O)C(OC(C)=O)C4[C@@]21O (some centres undefined) | inactive: 16.7% |
| c1ccc(N2CC3(CCNCC3)C2)cc1 | inactive: 8.68% |
| CCOP(=S)(OCC)Oc1nc(Cl)c(Cl)cc1Cl | inactive: 12.9% |
| C=C1C2CC[C@@]3(C)C(c4ccoc4)OC(=O)C[C@@]13OC1CC(=O)C(C)(C)C(C(OC(C)=O)C(=O)OC)[C@@]12C (some centres undefined) | inactive: -7.61% |
